Source: the supplement of paper PMC10723795
Counter-ions that a name gives are not always drawn. This is one part of the list.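 How the source made its calls: active = more than 2 SD below the DMSO mean: under 0.85 at 10 µM or 0.885 at 1 µM; inactive = the rest.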 Single values are uncertain, as repeats are few or missing.

Tested on: RPE1
Assay: nucleolar normality score relative to DMSO (fraction of DMSO control); RPE1 is a non-cancer human cell line; higher = more normal nucleoli (less nucleolar stress)
Conditions: 24 h
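Further: fixed cells immunolabelled for nucleolin and UBF, 40 image fields per well in 384-well plates, per-cell score = nucleolin nucleolar/nucleoplasm intensity ratio divided by the matching UBF ratio.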

Row | Molecule | nucleolar normality score (1 µM) | nucleolar normality score (10 µM)
1 | CC(Nc1nc(N2CCCC2)nc2ccccc12)c1ccccc1 (stereo unspecified) [Importazole] | inactive: 1.03 | inactive: 1.05
2 | Nc1cccc2c1CN(C1CCC(=O)NC1=O)C2=O (stereo unspecified) [Lenalidomide (CC-5013)] | active: 0.864 | inactive: 1.02
3 | CCCCCCCC(=O)CCc1ccc(O)c(OC)c1 [6-Paradol] | inactive: 1.08 | inactive: 1.05
4 | Ac-PHSCN-NH2 | inactive: 1.02 | inactive: 1.07
5 | C[C@@H]1CN(CC(=O)Nc2ccc3c(c2)Cc2cccc(-c4cc(=O)cc(N5CCOCC5)o4)c2S3)C[C@H](C)O1 | inactive: 1.01 | inactive: 0.98
6 | C[C@]12CC[C@@H]3c4ccc(O)cc4CC[C@H]3[C@@H]1C[C@@H](O)[C@@H]2O [Estriol] | inactive: 0.967 | inactive: 0.853
7 | Cc1nc(N)sc1-c1ccnc(Nc2ccc(N3CCOCC3)cc2)n1 | active: 0.881 | inactive: 0.864
8 | C=CC(=O)N1CCC[C@@H](n2nc(-c3ccc(Oc4ccccc4)cc3)c3c(N)ncnc32)C1 | inactive: 1.05 | inactive: 0.898
9 | CC(=O)N1CCN(CCOc2ccc(C3CCN(C4=Nn5c(nnc5C(F)(F)F)CC4)CC3)cc2)CC1 | inactive: 0.997 | inactive: 0.858
10 | CCN(c1cc(-c2ccc(CN3CCOCC3)cc2)cc(C(=O)NCc2c(C)cc(C)[nH]c2=O)c1C)C1CCOCC1 [Tazemetostat (EPZ-6438)] | inactive: 1.01 | inactive: 0.916
11 | CC(CCC(=O)NCCS(=O)(=O)O)C1CCC2C3C(O)CC4CC(O)CCC4(C)C3CCC12C (stereo unspecified) [Sodium Tauroursodeoxycholate (TUDC)] | inactive: 0.922 | inactive: 1.01
12 | COC[C@H](NC(=O)c1cnc(C)s1)C(=O)N[C@@H](COC)C(=O)N[C@@H](Cc1ccccc1)C(=O)[C@@]1(C)CO1 [Oprozomib (ONX 0912)] | active: 0.842 | active: 0.839
13 | Cc1cc(Nc2nc(N[C@@H](C)c3ncc(F)cn3)ncc2Cl)[nH]n1 | inactive: 0.97 | inactive: 1.01
14 | C[C@H]1O[C@@H](O[C@H]2CC[C@@]3(C)[C@@H](CC[C@]4(C)[C@@H]3C=C[C@]35OC[C@@]6(CCC(C)(C)C[C@H]63)[C@H](O)C[C@]54C)[C@]2(C)CO)[C@H](O)[C@@H](O[C@@H]2O[C@H](CO)[C@@H](O)[C@H](O)[C@H]2O)[C@H]1O [Saikosaponin D] | inactive: 1.04 | inactive: 0.975
15 | COc1cc(/C=C/c2ccc(O)c(O)c2)cc(OC)c1 [3'-Hydroxypterostilbene] | inactive: 1.02 | inactive: 1.09
16 | Fc1cc(-c2cccc3ncc(-c4cnn(C5CCNCC5)c4)nc23)cc(F)c1CN1CCOCC1 | inactive: 1.02 | inactive: 0.983
17 | O=C(NCC(=O)N1CCCC1)Nc1ccc2cnccc2c1 | inactive: 1.03 | inactive: 1.06
18 | CN(C)CCSSCCNC(=O)C1CCN(C(=O)CSc2ccc(Cl)cc2)CC1 | inactive: 0.997 | inactive: 1.02
19 | CC1(C)NC(=O)N(c2ccc([N+](=O)[O-])c(C(F)(F)F)c2)C1=O [Nilutamide] | inactive: 0.987 | inactive: 0.891
20 | Cc1[nH]c(/C=C2\C(=O)Nc3ccc(S(=O)(=O)N(C)c4cccc(Cl)c4)cc32)c(C)c1C(=O)N1CCN(C)CC1 | inactive: 1.06 | inactive: 1.07

Row | Molecule | nucleolar normality score (1 µM) | nucleolar normality score (10 µM)
21 | CN(C)Cc1ccc(-c2nc3cccc4c3n2CCNC4=O)cc1 | inactive: 0.945 | inactive: 1.02
22 | Cc1nc(NC(=O)N2CCC[C@H]2C(N)=O)sc1-c1ccnc(C(C)(C)C(F)(F)F)c1 [Alpelisib (BYL719)] | inactive: 1.04 | inactive: 0.906
23 | Nc1ncnc2c1c(-c1cnc3[nH]ccc3c1)nn2C1CCCC1 | active: 0.868 | active: 0.629
24 | CCC(C)SSc1ncc[nH]1 (stereo unspecified) | inactive: 1.02 | inactive: 1.09
25 | Cc1coc2c1C(=O)C(=O)c1c-2ccc2c(C)cccc12 [Tanshinone I] | inactive: 1.02 | inactive: 0.897
26 | Cc1c(CN2CCC(Nc3ncnc4sc(CC(F)(F)F)cc34)CC2)ccc2c1cc(C#N)n2Cc1cn[nH]c1 | inactive: 0.976 | inactive: 0.958
27 | COc1cc(Nc2nc3ccccc3nc2NS(=O)(=O)c2ccc(NC(=O)c3ccc(C)c(OC)c3)cc2)cc(OC)c1 | inactive: 1.02 | inactive: 1.12
28 | Cc1ccccc1-n1c(Cn2nc(-c3cccc(O)c3)c3c(N)ncnc32)nc2cccc(C)c2c1=O | inactive: 1.09 | inactive: 1.1
29 | CCNC(=O)C#Cc1ccc2c(C(=Nc3ccc(CN(C)C)cc3)c3ccccc3)c(O)[nH]c2c1 | active: 0.774 | active: 0.537
30 | C=C1C(=O)O[C@@H]2C[C@@]3(C)CCC[C@H](C)C3=C[C@H]12 [Alantolactone] | inactive: 1.11 | inactive: 1.07
31 | C[C@@H](CN1CC(=O)NC(=O)C1)N1CC(=O)NC(=O)C1 [Dexrazoxane] | active: 0.533 | inactive: 1.01
32 | Cn1nccc1Nc1nccc(-c2ccn([C@H](CO)c3ccc(Cl)c(F)c3)c(=O)c2)n1 | inactive: 0.98 | inactive: 1
33 | O=S(=O)(O)CCS [Mesna] | inactive: 1.02 | inactive: 1.13
34 | C=CC(=O)N1CC/C(=C\c2ccc(F)c([N+](=O)[O-])c2)C(=O)/C(=C/c2ccc(F)c([N+](=O)[O-])c2)C1 | inactive: 1.02 | inactive: 1.07
35 | Cc1cccc(-c2[nH]c(CNc3ccccc3F)nc2-c2ccc3ncnn3c2)n1 [Vactosertib ?(TEW-7197)] | inactive: 0.977 | inactive: 1.03
36 | CCCS(=O)(=O)Nc1ccc(F)c(C(=O)c2c[nH]c3ncc(-c4ccc(Cl)cc4)cc23)c1F [Vemurafenib (PLX4032, RG7204)] | inactive: 1.1 | inactive: 1.08
37 | Cc1nnc(C(C)C)n1C1C[C@H]2CC[C@@H](C1)N2CC[C@H](NC(=O)C1CCC(F)(F)CC1)c1ccccc1 (stereo in doubt) [Maraviroc] | inactive: 1.08 | inactive: 1.1
38 | Cn1c(=O)cc(N2CCC[C@@H](N)C2)n(Cc2ccccc2C#N)c1=O [Alogliptin] | inactive: 1.05 | inactive: 1.08
39 | CC1=C[C@]2(O)O[C@@]3(CC2=C(C)C)[C@@H](C)CC[C@@H]13 [Curcumenol] | inactive: 1.05 | inactive: 0.919
40 | COc1ccc(-c2cc(=O)c3c(O)cc(O[C@@H]4O[C@H](CO[C@@H]5O[C@@H](C)[C@H](O)[C@@H](O)[C@H]5O)[C@@H](O)[C@H](O)[C@H]4O)cc3o2)cc1O [Diosmin] | inactive: 1 | inactive: 1.08

Row | Molecule | nucleolar normality score (1 µM) | nucleolar normality score (10 µM)
41 | COC1=C2C[C@@H](C)C[C@H](OC)[C@H](O)[C@@H](C)/C=C(\C)[C@H](OC(N)=O)[C@@H](OC)/C=C\C=C(/C)C(=O)NC(=CC1=O)C2=O [Geldanamycin] | active: 0.403 | active: 0.367
42 | CCCCNc1ncc2c(-c3ccc(CN4CCN(C)CC4)cc3)cn([C@H]3CC[C@H](O)CC3)c2n1 | active: 0.882 | active: 0.63
43 | CC(=O)NC1C(OC2C(C(=O)O)OC(OC3C4COC(O4)C(NS(=O)(=O)O)C3O)C(O)C2O)OC(CO)C(OC2CC(C(=O)O)C(OC3OC(COS(=O)(=O)O)C(OC4OC(C(=O)O)=CC(O)C4O)C(O)C3NC(C)=O)C(O)C2O)C1C (stereo unspecified) [Enoxaparin sodium] | inactive: 1.02 | inactive: 1.02
44 | CNC(=O)Nc1ccc(-c2nc(N3CC4CCC(C3)O4)c3cnn(C4CCC5(CC4)OCCO5)c3n2)cc1 | active: 0.64 | active: 0.446
45 | Cn1cc(-c2ccc3nnc(C(F)(F)c4ccc5ncccc5c4)n3n2)cn1 | inactive: 1.06 | inactive: 1.04
46 | CCC(CC)CC1(C(=O)Nc2ccccc2SC(=O)C(C)C)CCCCC1 | inactive: 0.987 | inactive: 0.885
47 | CCCCCCCCc1ccc(CCC(N)(CO)CO)cc1 [Fingolimod (FTY720) HCl] | inactive: 1.03 | inactive: 0.891
48 | H-RKDVY-OH [Thymopentin] | inactive: 0.983 | inactive: 0.873
49 | C[C@]12CC[C@@H]3c4ccc(O)cc4CC[C@H]3[C@@H]1CCC2=O [Estrone] | inactive: 1 | inactive: 1
50 | CN1CCC(COc2cnc(-c3cccc(Cn4nc(-c5cccc(C#N)c5)ccc4=O)c3)nc2)CC1 | inactive: 1.04 | active: 0.589
51 | CC(C)c1cc(C(=O)N2Cc3ccc(CN4CCN(C)CC4)cc3C2)c(O)cc1O | active: 0.403 | active: 0.347
52 | CC1Oc2cc(cnc2N)-c2c(nn(C)c2C#N)CN(C)C(=O)c2ccc(F)cc21 (stereo unspecified) | inactive: 0.97 | inactive: 0.987
53 | OC1CCC(Oc2cccc3cnc(Nc4ccc5nc[nH]c5c4)nc23)CC1 (stereo unspecified) | inactive: 0.95 | inactive: 1.07
54 | O=NN(CCCl)C(=O)NC1CCCCC1 [Lomustine] | inactive: 0.966 | inactive: 0.999
55 | C=CC(=O)N1CCN(CCCn2c(=O)c(-c3c(Cl)c(OC)cc(OC)c3Cl)cc3cnc(NC)nc32)CC1 | inactive: 1.07 | inactive: 1.01
56 | O=C(O)CCn1c2c(c3ccccc31)C[C@H](NS(=O)(=O)c1ccc(F)cc1)CC2 [Ramatroban] | inactive: 1.1 | inactive: 1.05
57 | Cc1c[nH]c2nc(Nc3ccc(N4CCN(C)CC4)c(F)c3)nc(-c3cccc(CC#N)c3)c12 | inactive: 0.926 | inactive: 0.882
58 | c1cn2cc(-c3ccc4cn[nH]c4c3)nc(Nc3ccc(N4CCOCC4)cc3)c2n1 [Entospletinib (GS-9973)] | inactive: 1.03 | inactive: 1.06
